Assay results as given in the supplement of paper PMC3334620.
Whole data set: some 33,000 sequences, median “E-score (-0.5 to 0.5)” near -0.021, cut for the highest 2% near 0.32. This is one part of the list.

These sequences were tested against T1, Zap1 (UniProt P47043) (assay: PBM E-score (8-mer binding enrichment) (E-score (-0.5 to 0.5)); higher = stronger / more preferred TF binding; most listed sequences are background and not binding sites). Conditions: protein concentration: 200 nM; construct: GST-full length.
T1 sequence: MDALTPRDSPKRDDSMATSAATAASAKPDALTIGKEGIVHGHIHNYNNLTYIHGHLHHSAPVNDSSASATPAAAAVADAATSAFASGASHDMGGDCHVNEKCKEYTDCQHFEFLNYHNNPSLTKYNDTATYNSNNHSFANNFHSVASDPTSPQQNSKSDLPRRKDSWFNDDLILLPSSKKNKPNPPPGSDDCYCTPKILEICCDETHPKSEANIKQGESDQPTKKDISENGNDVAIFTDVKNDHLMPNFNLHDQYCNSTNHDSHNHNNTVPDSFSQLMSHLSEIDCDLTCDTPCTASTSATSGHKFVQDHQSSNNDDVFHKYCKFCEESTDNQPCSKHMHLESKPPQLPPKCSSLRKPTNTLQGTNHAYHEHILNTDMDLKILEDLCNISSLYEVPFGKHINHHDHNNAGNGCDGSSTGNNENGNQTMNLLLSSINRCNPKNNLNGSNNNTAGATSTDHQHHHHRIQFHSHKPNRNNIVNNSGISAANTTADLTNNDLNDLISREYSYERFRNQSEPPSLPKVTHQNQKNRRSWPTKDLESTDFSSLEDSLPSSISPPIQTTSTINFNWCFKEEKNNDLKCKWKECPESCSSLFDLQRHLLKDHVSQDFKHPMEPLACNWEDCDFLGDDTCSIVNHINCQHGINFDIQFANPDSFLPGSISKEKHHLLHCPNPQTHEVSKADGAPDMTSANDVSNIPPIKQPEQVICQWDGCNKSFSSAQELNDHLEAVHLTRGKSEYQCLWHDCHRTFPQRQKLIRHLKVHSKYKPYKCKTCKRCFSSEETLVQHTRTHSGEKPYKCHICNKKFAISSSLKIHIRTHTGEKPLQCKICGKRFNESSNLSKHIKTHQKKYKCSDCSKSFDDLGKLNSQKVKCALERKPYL
Summary of the method: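 GST-tagged yeast TFs (full-length or DNA-binding domain) were made by PURExpress in vitro transcription/translation and applied at about 100-200 nM to universal all-10-mer Agilent arrays. The arrays were made double-stranded by primer extension, on fresh or once-stripped slides. Bound protein was detected with fluorescent anti-GST, and scans were normalised with masliner. Each ungapped eight-base word, pooled with its reverse complement, received an E-score (modified Wilcoxon-Mann-Whitney statistic) from the Universal PBM Analysis Suite.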

Sequence | PBM E-score
ACCCCGGG | 0.34
GACAGAAC | 0.032
ATAACCAT | 0.457
CTGCAAGA | -0.16
ACCCCATG | 0.255
TTCCGGAA | -0.0117
CAAAGAAA | 0.032
GACTGACA | -0.171
AAATCCGT | -0.00373
GACTCTCC | -0.236
AAGCTACT | -0.0501
AGAGTCCA | -0.0365
ATTCGGTG | 0.0803
CTACCGGC | -0.0647
ACCTTGCG | 0.284
CCGTTGCA | -0.114
GTTATGAA | 0.266
CAATTGAA | -0.0576
ACGTGCAG | -0.0296
ACCTACCG | 0.0943
CGCTGAAG | -0.123
AACTCCTT | -0.105
GAGTCATC | -0.203
CTGGATGC | -0.0886
CTCTTTGA | 0.0565

Sequence | PBM E-score
ACCTCGCG | 0.109
GCCACCCA | -0.0281
ATCAATTG | 0.106
ATGAAGGA | 0.076
AAGAATCG | 0.0553
GACAACGC | -0.131
CCTGATGA | 0.224
ACTTCGTA | -0.16
AGCGTCAG | -0.136
ACTTACCC | 0.113
ACGACCTG | -0.111
CCCACACA | -0.0115
AAGTGAGC | -0.11
TAAGCCGA | -0.00581
GGGGATGA | -0.192
ATAAACCC | 0.308
CAAACAAC | 0.263
ACTTCTGA | -0.11
GTAAGCTA | -0.0341
ACTACCTC | 0.356
CGCGATGC | -0.197
CTTCTCCA | -0.276
ACAGGTGA | 0.0408
AGGGTCCG | -0.0112
AGTTCCCA | 0.093

Sequence | PBM E-score
CATATCGG | -0.0626
TGTGTCAA | 0.073
CAGGACGC | -0.186
CAAATATA | -0.00535
AGCGGTAG | -0.0368
CAGGGGGC | -0.223
GCCCGCGA | -0.0219
GTCCTGGA | -0.202
ACCTGTAT | 0.257
AAAATCGG | -0.0581
GACGATGA | -0.134
CCGCGTTC | 0.0519
GAAAAATC | 0.0472
CTGTCTAC | -0.117
GACGTTTA | -0.109
ACTGGCCG | -0.279
AGGATGTA | -0.0509
ATAGAAGC | -0.0622
CGTAGAAC | -0.0192
AACTCACC | -0.0088
ACAATCTC | -0.12
GTTTGAGA | 0.0992
TAAGCAAA | -0.0618
CAGTACCG | 0.104
GCAACGGA | -0.117

Sequence | PBM E-score
TATTTAAA | 0.261
GTAAGACA | 0.00958
AATTGCAC | 0.0718
AGTTCCAA | 0.14
GGGACCGA | -0.117
GGTATTAC | 0.16
CGTACTGC | -0.194
AATACCCA | 0.158
AAACAAGG | 0.0392
CAGGGTTC | 0.214
CATTGGGG | -0.135
AAAGCGAA | 0.0139
ATCCATTC | 0.0275
AGTCTAGG | -0.183
AGGGGCAA | -0.164
AGTGTTGA | -0.00039
AAGTGATG | -0.228
GCACCGAA | -0.0792
AATTCGAG | -0.131
CCATTTAA | 0.145
ATCCTTGG | -0.139
AGAAAAAA | 0.0725
CACTCAGC | -0.23
ACTTCTCG | -0.0464
AACTCGTC | 0.041

Sequence | PBM E-score
GGATTCGA | -0.103
AAGTTGAG | -0.0772
AAGACTGT | -0.345
ACGAAACC | 0.222
CAGGTCGA | 0.0408
GACGTGCC | -0.287
TCCCTGCA | 0.0185
AGGGGGTC | -0.354
ATGGCCTA | -0.0694
ATTAACGG | 0.0866
GTTGAGAA | -0.027
GTGTCAGA | 0.0459
GTACTGCA | 0.0754
ACTGCTCT | -0.00554
GACCAATC | 0.182
CCCGGGAG | 0.0949
CATAAGTC | -0.069
CTACATCC | -0.223
CAGTACAC | 0.0429
AATAGTGC | 0.0684
GGACGTCC | -0.234
CCCCAACC | 0.208
AGAAAGAC | 0.0317
GAAATGCC | -0.0267
GATTTCGA | -0.00027

Sequence | PBM E-score
CAGAACAG | -0.114
AGCGGTGA | -0.0388
ACTAAGAG | -0.0689
AGTAATAA | 0.137
CGCATGCA | 0.0118
AGGCCGTA | 0.132
GAGCAGCC | -0.199
GTATGTCA | 0.0926
GCGCACCA | -0.0327
CCTGCTAA | -0.0998
AGCCGTAA | 0.0628
TCTAAACA | -0.0187
AACACTGG | -0.0654
CGATGGAA | -0.0794
ACTCTTCC | -0.0943
ACAGCCAG | -0.152
ATTCATCA | 0.0213
GAGTAGAA | 0.0322
ATAAGAGC | -0.198
GAAGACCA | 0.0297
ACGCGGCC | -0.0697
CGGAAGGC | -0.069
AGGTAGTA | 0.337
CAGCCCGA | -0.192
ACGCAGCG | -0.108

Sequence | PBM E-score
AGGAACAC | 0.183
AGTCATTC | -0.193
ATGCGACG | -0.222
CTTACGAA | 0.0217
TACTGGCA | -0.0304
GAGGGCAA | -0.0412
TACTCGGA | 0.0978
CACCTAGA | -0.138
AACCTACA | 0.264
AAGAGGAT | -0.179
ACAAGATC | -0.0624
CTATGCAG | -0.0853
AAAATTGT | 0.166
GACCTTTA | 0.401
GCACGGGA | -0.222
CTGCCCGC | -0.161
CGGTTATA | 0.405
GAAGCGTA | -0.181
ACTGAGGC | -0.175
AATCTATC | 0.0923
AACTGGAT | -0.0687
AATACTCC | 0.0467
